This data set deals with the molecule itself. Put plainly: crystal structure; rabbit muscle TPI at 10 mg/ml with 5 mM PEP in 20 mM Tris pH 7.0, 150 mM NaCl, 5 mM MgCl2; sitting drop at 20°C, reservoir 0.1 M MES pH 6.5, 25% PEG 8000; homodimer in the asymmetric unit.

B1: Native rabbit muscle triosephosphate isomerase (TPI) (enzyme)
chain: not shown
notes: Triosephosphate isomerase, rabbit muscle, native enzyme (EC 5.3.1.1); homodimer in the asymmetric unit; also called TIM; rabbit TPI; source: bought: Sigma (native rabbit muscle TPI), buffer exchanged on a HiTrap Desalting column
For orientation: stoichiometry N means a count of units in the complex or per binding partner. As for B1, the “stoichiometry N” value amounted to 2.

The record behind these values is article PMC3971408, “Inhibition of triosephosphate isomerase by phosphoenolpyruvate in the feedback-regulation of glycolysis” (Open Biology, 2014).
